Test results: paper PMC3760798
These are yes or no findings as the source states them, for the method shown. For some assays here: In cells and extracts the contact can be indirect. Some entries that bind do so weakly or less than the wild type. For some assays here: Where a sequence is shown, tags or fusion partners need not be part of it.

The chains behind the UniProt entries cited, without tags or fusion partners. Where a name states a change or a piece, a line headed by the entry shows the natural chain unless it says otherwise. Residues count along the entry.
UniProt P45481: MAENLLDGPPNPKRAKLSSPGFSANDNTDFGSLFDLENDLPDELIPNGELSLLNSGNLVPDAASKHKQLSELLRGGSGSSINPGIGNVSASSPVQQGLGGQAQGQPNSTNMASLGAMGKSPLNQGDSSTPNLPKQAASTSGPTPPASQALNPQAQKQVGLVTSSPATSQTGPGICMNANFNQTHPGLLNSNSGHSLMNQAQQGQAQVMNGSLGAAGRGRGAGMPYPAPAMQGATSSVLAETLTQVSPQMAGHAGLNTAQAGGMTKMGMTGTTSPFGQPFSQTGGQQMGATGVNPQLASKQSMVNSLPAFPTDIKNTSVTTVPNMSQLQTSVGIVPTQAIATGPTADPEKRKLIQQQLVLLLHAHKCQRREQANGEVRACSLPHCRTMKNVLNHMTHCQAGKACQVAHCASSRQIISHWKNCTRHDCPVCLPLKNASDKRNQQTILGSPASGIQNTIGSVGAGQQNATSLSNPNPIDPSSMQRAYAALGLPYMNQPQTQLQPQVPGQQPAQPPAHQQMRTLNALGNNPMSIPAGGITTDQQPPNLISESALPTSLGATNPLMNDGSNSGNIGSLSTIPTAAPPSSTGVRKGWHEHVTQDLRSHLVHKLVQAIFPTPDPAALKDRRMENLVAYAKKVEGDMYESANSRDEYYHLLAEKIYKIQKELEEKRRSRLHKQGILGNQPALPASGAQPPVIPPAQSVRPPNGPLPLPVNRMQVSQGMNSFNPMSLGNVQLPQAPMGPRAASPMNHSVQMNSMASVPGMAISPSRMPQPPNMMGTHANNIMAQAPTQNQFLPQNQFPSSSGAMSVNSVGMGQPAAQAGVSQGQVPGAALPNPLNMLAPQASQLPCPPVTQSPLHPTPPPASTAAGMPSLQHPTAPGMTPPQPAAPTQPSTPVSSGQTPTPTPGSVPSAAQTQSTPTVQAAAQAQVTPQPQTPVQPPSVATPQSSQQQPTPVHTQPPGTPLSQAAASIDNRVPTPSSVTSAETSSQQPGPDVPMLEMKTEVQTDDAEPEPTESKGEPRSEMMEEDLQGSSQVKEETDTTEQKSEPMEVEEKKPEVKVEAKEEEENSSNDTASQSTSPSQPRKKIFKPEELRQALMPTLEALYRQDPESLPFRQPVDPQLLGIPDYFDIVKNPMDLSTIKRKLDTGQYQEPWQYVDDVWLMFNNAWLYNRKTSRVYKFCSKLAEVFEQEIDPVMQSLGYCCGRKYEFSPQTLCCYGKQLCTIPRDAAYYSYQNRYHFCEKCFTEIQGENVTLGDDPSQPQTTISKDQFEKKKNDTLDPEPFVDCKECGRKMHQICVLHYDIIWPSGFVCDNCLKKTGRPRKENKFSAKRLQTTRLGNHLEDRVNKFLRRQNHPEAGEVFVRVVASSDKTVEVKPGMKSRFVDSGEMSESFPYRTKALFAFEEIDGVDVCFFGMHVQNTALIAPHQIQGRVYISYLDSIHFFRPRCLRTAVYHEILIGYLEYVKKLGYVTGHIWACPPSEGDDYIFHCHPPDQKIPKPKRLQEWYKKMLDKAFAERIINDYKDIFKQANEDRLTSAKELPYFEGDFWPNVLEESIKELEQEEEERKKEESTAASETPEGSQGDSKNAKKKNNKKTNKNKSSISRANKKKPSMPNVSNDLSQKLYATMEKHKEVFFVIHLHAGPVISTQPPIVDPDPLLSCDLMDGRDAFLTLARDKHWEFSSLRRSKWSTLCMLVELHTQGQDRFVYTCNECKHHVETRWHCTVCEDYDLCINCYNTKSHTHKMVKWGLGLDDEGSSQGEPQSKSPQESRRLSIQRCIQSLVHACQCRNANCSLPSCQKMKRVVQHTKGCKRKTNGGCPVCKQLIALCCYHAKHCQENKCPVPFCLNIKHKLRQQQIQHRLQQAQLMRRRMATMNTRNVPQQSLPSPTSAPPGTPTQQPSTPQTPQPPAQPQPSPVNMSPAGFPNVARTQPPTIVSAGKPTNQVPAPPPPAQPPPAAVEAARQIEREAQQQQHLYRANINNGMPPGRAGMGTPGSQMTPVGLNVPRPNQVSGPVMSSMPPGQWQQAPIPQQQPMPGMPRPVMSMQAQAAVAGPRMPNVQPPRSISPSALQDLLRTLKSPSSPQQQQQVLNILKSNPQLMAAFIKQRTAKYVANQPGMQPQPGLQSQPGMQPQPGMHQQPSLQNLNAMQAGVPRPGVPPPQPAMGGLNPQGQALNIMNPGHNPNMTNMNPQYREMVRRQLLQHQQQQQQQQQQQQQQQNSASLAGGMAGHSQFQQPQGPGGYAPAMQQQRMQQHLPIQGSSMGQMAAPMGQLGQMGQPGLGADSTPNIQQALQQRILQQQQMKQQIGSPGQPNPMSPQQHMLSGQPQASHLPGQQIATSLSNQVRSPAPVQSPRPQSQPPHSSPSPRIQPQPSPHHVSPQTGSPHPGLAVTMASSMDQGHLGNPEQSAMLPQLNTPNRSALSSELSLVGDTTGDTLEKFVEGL
GST–KIX: residues 586-665 of P45481
UniProt B2RWS6: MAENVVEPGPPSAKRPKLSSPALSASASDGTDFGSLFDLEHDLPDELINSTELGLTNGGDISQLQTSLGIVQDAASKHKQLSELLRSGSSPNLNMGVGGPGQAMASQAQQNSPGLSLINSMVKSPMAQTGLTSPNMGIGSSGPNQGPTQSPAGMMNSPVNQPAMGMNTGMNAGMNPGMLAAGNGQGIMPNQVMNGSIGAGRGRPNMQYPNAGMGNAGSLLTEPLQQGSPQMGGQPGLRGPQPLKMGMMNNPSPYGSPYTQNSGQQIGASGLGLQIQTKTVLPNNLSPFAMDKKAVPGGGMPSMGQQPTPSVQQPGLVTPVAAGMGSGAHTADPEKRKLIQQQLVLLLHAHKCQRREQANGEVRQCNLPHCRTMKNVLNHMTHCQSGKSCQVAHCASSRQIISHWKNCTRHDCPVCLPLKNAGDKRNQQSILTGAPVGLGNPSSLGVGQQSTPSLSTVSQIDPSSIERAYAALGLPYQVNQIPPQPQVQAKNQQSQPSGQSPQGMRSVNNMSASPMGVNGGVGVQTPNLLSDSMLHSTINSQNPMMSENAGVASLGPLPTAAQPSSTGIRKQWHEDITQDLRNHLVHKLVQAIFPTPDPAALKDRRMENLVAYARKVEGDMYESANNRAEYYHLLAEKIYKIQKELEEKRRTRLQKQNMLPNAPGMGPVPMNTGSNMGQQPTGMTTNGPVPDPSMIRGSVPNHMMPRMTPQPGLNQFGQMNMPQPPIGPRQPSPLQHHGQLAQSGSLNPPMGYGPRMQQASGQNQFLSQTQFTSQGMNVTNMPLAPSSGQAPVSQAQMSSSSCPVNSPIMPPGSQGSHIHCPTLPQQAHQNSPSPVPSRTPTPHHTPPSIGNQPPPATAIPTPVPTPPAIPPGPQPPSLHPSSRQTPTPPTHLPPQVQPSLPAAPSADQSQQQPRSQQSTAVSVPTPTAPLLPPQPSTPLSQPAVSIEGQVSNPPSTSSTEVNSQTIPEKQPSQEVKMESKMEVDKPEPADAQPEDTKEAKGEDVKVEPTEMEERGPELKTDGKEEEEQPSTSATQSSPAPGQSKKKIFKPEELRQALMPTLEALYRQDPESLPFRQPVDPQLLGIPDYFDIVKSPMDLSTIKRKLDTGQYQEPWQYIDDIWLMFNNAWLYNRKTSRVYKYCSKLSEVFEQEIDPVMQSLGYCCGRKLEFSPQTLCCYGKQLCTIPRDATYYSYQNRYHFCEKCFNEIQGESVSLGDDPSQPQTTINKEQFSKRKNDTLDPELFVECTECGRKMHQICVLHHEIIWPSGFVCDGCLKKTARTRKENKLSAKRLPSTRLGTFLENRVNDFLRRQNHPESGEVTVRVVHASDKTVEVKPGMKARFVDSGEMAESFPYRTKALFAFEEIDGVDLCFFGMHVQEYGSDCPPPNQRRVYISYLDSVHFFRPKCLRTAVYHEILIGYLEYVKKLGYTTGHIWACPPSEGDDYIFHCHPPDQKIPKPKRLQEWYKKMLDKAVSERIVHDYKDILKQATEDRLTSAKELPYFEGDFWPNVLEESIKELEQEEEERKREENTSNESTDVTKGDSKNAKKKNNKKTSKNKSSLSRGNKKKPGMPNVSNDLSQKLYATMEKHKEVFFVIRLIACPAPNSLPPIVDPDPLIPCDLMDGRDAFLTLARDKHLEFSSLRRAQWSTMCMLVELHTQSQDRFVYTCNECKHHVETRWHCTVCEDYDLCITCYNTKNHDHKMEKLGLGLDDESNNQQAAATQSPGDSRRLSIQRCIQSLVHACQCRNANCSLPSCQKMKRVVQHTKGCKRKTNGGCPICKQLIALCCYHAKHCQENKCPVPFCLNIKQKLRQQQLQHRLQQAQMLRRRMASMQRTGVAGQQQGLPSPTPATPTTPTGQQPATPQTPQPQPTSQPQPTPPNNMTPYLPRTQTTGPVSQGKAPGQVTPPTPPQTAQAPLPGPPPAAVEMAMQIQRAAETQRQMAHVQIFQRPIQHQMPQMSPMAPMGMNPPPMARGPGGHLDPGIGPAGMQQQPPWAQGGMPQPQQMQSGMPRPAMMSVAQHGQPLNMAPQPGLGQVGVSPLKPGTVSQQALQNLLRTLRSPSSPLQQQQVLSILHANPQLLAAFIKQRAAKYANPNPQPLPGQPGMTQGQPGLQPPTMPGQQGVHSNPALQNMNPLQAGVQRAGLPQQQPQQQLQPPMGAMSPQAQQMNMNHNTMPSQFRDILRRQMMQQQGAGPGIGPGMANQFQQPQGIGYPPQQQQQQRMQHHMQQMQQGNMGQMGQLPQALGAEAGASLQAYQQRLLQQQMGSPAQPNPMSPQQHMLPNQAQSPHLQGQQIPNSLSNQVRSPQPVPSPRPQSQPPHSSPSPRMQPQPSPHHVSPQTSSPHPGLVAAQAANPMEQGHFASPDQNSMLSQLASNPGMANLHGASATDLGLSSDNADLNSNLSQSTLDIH

Legend:
GST–KIX (mouse) = GST–KIX (mouse) (UniProt P45481); test: pull-down; in vitro purified GST–KIX or GST–TAZ1 used to pull down nRelA from nuclear extracts of wild-type 3T3 cells or of RelA(wt/mutants) reconstituted rela−/− cells stimulated with TNFα for 30 min; RelA immunoblot; only the target purified
[1] = target: endogenous CBP (CREB-binding protein) (mouse (endogenous in rela−/− fibroblasts)) (UniProt P45481); test: co-IP; nuclear extracts of RelA(wt/mutants) reconstituted rela−/− cells, unstimulated or stimulated with TNFα (5 ng/ml; 15, 30, 45 min); anti-CBP, anti-p300 or anti-RelA antibody, protein-G beads; immunoblot for RelA or CBP
[2] = target: endogenous p300 (mouse (endogenous in rela−/− fibroblasts)) (UniProt B2RWS6); test: as above
[3] = target: T1, GB1-tagged RelA–TA2 fragment 425–508 (F473A) (mouse) (UniProt Q04207); test: condition: 10 to 18 µM of RelA–TA2 peptide in the cell and 169 to 185 µM TAZ1 in the syringe; ITC; TAZ1 (169 to 185 µM) in the syringe, GB1-tagged RelA–TA2 peptide (10 to 18 µM) in the cell; 25°C; 20 mM Tris pH 8.0, 150 mM NaCl, 1 mM DTT; single-binding site model; both purified
T1 sequence: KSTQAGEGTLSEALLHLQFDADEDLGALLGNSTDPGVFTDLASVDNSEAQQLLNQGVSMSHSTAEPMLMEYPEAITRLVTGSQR

[4] = target: T2, GST-RelA fragment (Lys425–Pro490) Phe473Ala (mouse) (UniProt Q04207); test: pull-down; GST-RelA fragments (20 µg) on glutathione sepharose beads with purified TAZ1 (10 µg); 20 mM Tris pH 7.5, 150 mM NaCl, 0.5 mM DTT; 4°C, 30 min; washes with 0.3% TritonX-100; SDS-PAGE; both purified
T2 sequence: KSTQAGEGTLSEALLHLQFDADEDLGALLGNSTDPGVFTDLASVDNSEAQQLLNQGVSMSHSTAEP

[5] = target: T3, GST-RelA(477–504) (mouse) (UniProt Q04207); test: as above
T3 sequence: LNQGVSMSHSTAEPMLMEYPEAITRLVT

Row | Substance | binding [1] | binding [2] | also measured
1 | nuclear-RelA (nRelA) of wild-type 3T3 cells (from UniProt Q04207 1-549) | – | – | binding (GST–KIX (mouse)): binds
2 | RelA(Leu449Ala+Phe473Ala), full length, in reconstituted rela−/− cells (from UniProt Q04207 1-549) | binds | binds | –
3 | RelA(Leu449Ala+Phe473Ala+Ser467Ala), full length, in reconstituted rela−/− cells (from UniProt Q04207 1-549) | binds | – | –
4 | RelA(Ser276Ala), full length, in reconstituted rela−/− cells (from UniProt Q04207 1-549) | binds | binds | –
5 | TAZ1 domain of mouse CBP (residues 340–439) (from UniProt P45481 340-439) (domain or fragment) | – | – | binding [3]: no binding; binding [4]: no binding; binding [5]: binds weakly
6 | RelA(Ser467Ala), in reconstituted rela−/− cells (from UniProt Q04207 1-549) | binds | binds | –
